In PubChem BioAssay AID2060615 (Molecular Pharmacology Branch, DTP, NCI, 2025):
Certain results were filed several times, with different values. This is not the full list of results. The source may hold further records. Values given together are repeated measurements (runs, samples, wells, individuals or studies).

Tested on: 496974-208-R-J2-PDC complex spheroids, growth % test/control
Assay: Anticancer human tumor 496974-208-R-J2-PDC patient-derived pancreatic carcinoma cell line growth inhibition [CLK]
Details: compound alone
Source text: A high-throughput screen of multi-cell type tumor spheroids was designed to identify active combinations of […] and targeted small molecules. Complex spheroids include a stromal component modeled by human endothelial cells (HUVEC) and fibroblasts modeled by human mesenchymal stem cells (MSCs). The concentration ranges selected for each drug and investigational agent were based upon clinically achievable concentrations if the clinical Cmax of the agent was known.
Compounds. The drugs and investigational agents: cirtuvivint (SM08502; NSC835563), CC-671 (NSC850746), vemurafenib (NSC761431), tapotoclax (NSC804041), sotorasib (NSC818433), adagrasib (NSC831453), MRTX-1133 (NSC836407), BAY2416964 (NSC825713), copanlisib (NSC816437), inavolisib (NSC800729), abemaciclib (NSC768073), osimertinib (NSC779217), entinostat (NSC756642), eltanexor (KPT-8602, NSC794443), venetoclax (NSC766270), ceralasertib (NSC777638), bortezomib (NSC756655), olaparib (NSC753686), talazoparib (NSC767125), alisertib (NSC759677), peposertib (NSC802822), gemcitabine (NSC613327), 5-fluorouracil (NSC19893), SN-38 (NSC673596), oxaliplatin (NSC266046), paclitaxel (NSC125973), and doxorubicin (NSC123127), were obtained from the National Cancer Institute (NCI) Developmental Therapeutics Program Chemical Repository. […] If the clinical Cmax for an agent had not been determined, the highest concentration tested was 10 microM. […]
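Further: spheroids exposed to the drugs for 7 days before readout.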

- IC50: 855 nM and > 10 µM
Compound: Nc1ccn(C2OC(CO)C(O)C2(F)F)c(=O)n1 (stereo unspecified)
